Reference: the supplement of paper PMC3334620
Over roughly 33,000 sequences, “E-score (-0.5 to 0.5)” has its median near -0.016; the highest 2% begin near 0.32. This is one part of the list.

molecular target: T1, Stp1 (UniProt B3LFK1); assay: PBM E-score (8-mer binding enrichment) (E-score (-0.5 to 0.5)); higher = stronger / more preferred TF binding; most listed sequences are background and not binding sites; settings: protein concentration: 200 nM; construct: GST-full length
T1 sequence: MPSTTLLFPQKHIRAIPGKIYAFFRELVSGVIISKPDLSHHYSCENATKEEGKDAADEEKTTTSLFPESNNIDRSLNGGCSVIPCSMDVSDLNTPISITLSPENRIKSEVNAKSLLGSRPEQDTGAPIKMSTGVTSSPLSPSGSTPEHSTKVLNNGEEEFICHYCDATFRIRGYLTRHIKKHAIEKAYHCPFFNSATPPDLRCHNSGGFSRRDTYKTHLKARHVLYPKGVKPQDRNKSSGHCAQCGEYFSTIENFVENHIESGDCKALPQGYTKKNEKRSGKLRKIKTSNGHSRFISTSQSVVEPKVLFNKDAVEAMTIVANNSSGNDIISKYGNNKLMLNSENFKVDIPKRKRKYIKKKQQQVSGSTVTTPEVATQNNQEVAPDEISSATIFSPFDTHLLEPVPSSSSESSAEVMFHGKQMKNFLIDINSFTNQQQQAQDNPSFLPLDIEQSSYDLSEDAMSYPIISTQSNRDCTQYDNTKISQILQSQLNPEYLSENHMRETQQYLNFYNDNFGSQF
How it was run: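 Bound GST-tagged yeast transcription factors, applied at about 100-200 nM to double-stranded universal all-10-mer Agilent arrays, were detected with fluorescent anti-GST. Scans were normalised with masliner. A modified Wilcoxon-Mann-Whitney statistic, the E-score, was assigned to each ungapped eight-base word pooled with its reverse complement by the Universal PBM Analysis Suite.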

Row | Sequence | PBM E-score
1 | CTACAAGC | 0.0892
2 | CATGGGCG | 0.0374
3 | GGACGAGA | -0.12
4 | CTAAGGTC | -0.214
5 | ATACGCTG | -0.00337
6 | TCCTATCA | -0.0558
7 | ATTCTATA | 0.189
8 | CGAGGGAC | -0.245
9 | AAGGTAAT | 0.0497
10 | CTACCTAG | -0.205
11 | AACTGGCG | 0.126
12 | CTGCCCTA | -0.181
13 | AAGAATGG | -0.0655
14 | CGATCGTA | 0.0188
15 | AGTTTGCG | 0.0886
16 | AATATTTC | 0.159
17 | TAGGAGCA | -0.0313
18 | CTAAGCCC | -0.243
19 | GATGTCGA | 0.0215
20 | AACTCCAT | -0.0761
21 | AAACGCGT | 0.0336
22 | GCGGTTCC | -0.075
23 | CAATCTCA | 0.00627
24 | AAACCAGT | 0.0102
25 | CGGCCGCA | 0.325

Row | Sequence | PBM E-score
26 | CGAACTCA | -0.141
27 | GCAGCCAC | 0.132
28 | CCCGGTTA | -0.0439
29 | ACCCTGTG | -0.0276
30 | ATACTCCA | -0.044
31 | GCACGACA | 0.0543
32 | TCGAGAGA | -0.116
33 | AAAAGTCG | -0.00811
34 | ACGGAATC | 0.113
35 | GATTCTAC | 0.154
36 | GTGATTAA | 0.0766
37 | CTACCAGC | -0.156
38 | ATGACGAA | 0.115
39 | ACTCGGAC | -0.166
40 | CAGAGGGC | 0.0551
41 | ACTACAGG | 0.0819
42 | AGTTTGAG | -0.0314
43 | AGTATGAA | -0.0188
44 | AGAAGCGG | 0.117
45 | CCGTGGGC | 0.197
46 | AGCCAGTC | -0.0837
47 | AGACTGCC | 0.0841
48 | CACCACCG | -0.19
49 | ACTAAGCT | 0.075
50 | AGGTACCC | -0.414

Row | Sequence | PBM E-score
51 | CATCCAAC | -0.104
52 | CTTATAGC | -0.0511
53 | ATGAGGCA | 0.332
54 | GACGTTGC | -0.08
55 | ATATCATA | 0.0651
56 | ATATGCGC | 0.111
57 | ATAGGGGA | -0.34
58 | GGCCGTGA | 0.126
59 | GCAGTCGC | 0.0609
60 | ATTGTAAG | -0.0724
61 | CAATGCTC | -0.0633
62 | CAAACTTG | -0.0331
63 | CACGACTC | -0.162
64 | GAACAACC | 0.0417
65 | CGGCACCG | 0.437
66 | AATGCCGC | 0.465
67 | GAGGGTGA | -0.132
68 | AACCCGGG | -0.0425
69 | AAGTACGG | 0.22
70 | TAGCTAGA | 0.00307
71 | CTATGAGC | -0.0622
72 | CATAGTAG | -0.0254
73 | AAGTCCCC | -0.26
74 | AACACATA | 0.129
75 | GTGCCTGA | -0.105

Row | Sequence | PBM E-score
76 | TCAACAAA | 0.128
77 | TACACCGA | -0.125
78 | ATATGCCA | 0.153
79 | AACCCGGT | -0.236
80 | GAAAAGGC | 0.145
81 | CCACGCAA | 0.0719
82 | CAAGAGCA | -0.128
83 | ATCCACCA | -0.152
84 | CTTGCTTA | -0.203
85 | ACGCGCAC | -0.0204
86 | GAAGAGCA | -0.229
87 | AAAGAGAT | -0.102
88 | TACAGATA | 0.0785
89 | AATCCTGC | 0.0377
90 | CCACCGAC | -0.174
91 | AAACGATG | 0.101
92 | TAGCTGCA | -0.158
93 | ATATGGGC | -0.0537
94 | ACAACGGT | -0.12
95 | ACACGGTA | 0.124
96 | CACCCAGC | -0.24
97 | ACTCGAGT | 0.176
98 | GCTCAGAC | -0.153
99 | AACCCGTT | 0.0288
100 | TCGGCTAA | 0.145

Row | Sequence | PBM E-score
101 | AGACGGTA | -0.0204
102 | TAGTTGGA | -0.0689
103 | AGAATGAA | 0.165
104 | CGCCTCCC | -0.0341
105 | GAAGCTCA | -0.241
106 | AATTGGGG | -0.25
107 | AGGCAGCC | 0.0179
108 | AAAACGGG | 0.113
109 | AAGCCGGT | -0.0859
110 | GCGGGAGC | -0.236
111 | CAAGGGAG | -0.0939
112 | CCGTACGC | 0.327
113 | ATGTATGC | 0.114
114 | ATCCCCAT | 0.0301
115 | ACTAGACA | 0.0677
116 | CGTAGATC | 0.057
117 | ATCTAATA | 0.134
118 | CCCCATCA | -0.203
119 | CAGCTATC | -0.201
120 | CGTCCTAG | -0.166
121 | AAAGACTA | 0.00271
122 | TATTGTGA | 0.0206
123 | AGCTTCGC | -0.0523
124 | AGAATAGG | 0.0673
125 | AAAACGAC | 0.0313

Row | Sequence | PBM E-score
126 | ATGCAGCG | 0.0428
127 | AGTGGTAC | -0.0919
128 | ATGATCCG | 0.151
129 | GTTCCGGA | -0.115
130 | CCTGCCAG | -0.259
131 | ACGTTCCG | -0.106
132 | AGAGGATA | -0.0877
133 | CTTTCCTC | -0.0795
134 | GCGACCCA | -0.234
135 | AATCCTAT | 0.1
136 | CCAGGTTC | -0.226
137 | CCATCAGC | -0.131
138 | CCCAATCC | -0.251
139 | GGAGACAA | 0.0426
140 | CAAAGGTG | -0.0209
141 | GGCCAGCA | -0.139
142 | GGCAGGCC | -0.117
143 | CCCCCCGC | -0.288
144 | GCTGTGCA | -0.129
145 | ACGCGAGC | 0.00376
146 | ATGAGAAG | -0.203
147 | AGGCGCCT | 0.383
148 | TCGAGTAA | 0.0232
149 | AGCTGTTG | 0.0858
150 | TTGGAAAA | 0.177

Row | Sequence | PBM E-score
151 | AGGCAATA | 0.227
152 | CTTGGGTC | -0.136
153 | ACGGGGAT | -0.0326
154 | AACGAATA | -0.119
155 | CACCCTCG | -0.0726
156 | GCAGTAGC | -0.267
157 | CAAACTGG | -0.136
158 | GAGGTCCA | -0.116
159 | CAGCCATA | -0.0858
160 | GTGTCTCA | -0.0138
161 | CACAGAAC | -0.213
162 | CTAGGGAC | -0.0838
163 | CGAGGCCG | 0.106
164 | AAGTCTGA | -0.299
165 | GACATCTA | -0.0238
166 | CCACATGG | 0.0401
167 | CACGTGTA | 0.0091
168 | CTTGTCAA | 0.225
169 | AATAATAT | 0.275
170 | AGCCATTC | -0.0844
171 | AGGAGAAG | -0.19
172 | AGTACGAC | 0.0357
